Measurements published in the RNAGym collection of RNA variant scans (doi:10.1073/pnas.2313332121).
This sample is rich in variants without activity.

B1: TPR 5TU (parent)
chain: GGAUCUUCUCGAUCUAACAAAAAAGACAAAUCUGCCACAAAGCUUGAGAGCAUCUUCGGAUGCAGAGGCGGCAGCCUUCGGUGGCGCGAUAGCGCCAACGUUCUCAACUAUGACACGCAAAACGCGUGCUCCGUUGAAUGGAGUUUAUCAUG

Variants of: B1
Experiment: polymerase ribozyme fitness, log enrichment relative to wild type (log ratio); higher = more active; in vitro selection for triplet polymerase activity
Outline: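 Mutant libraries were PCR-built and transcribed for each subunit of a heterodimeric triplet polymerase ribozyme and selected for one round in triplicate at −7 °C, frozen, before gel excision of extended constructs and streptavidin-bead capture. Input and output libraries were Illumina-sequenced, keeping genotypes with ≥10 input reads and ≥1 read per output. Fitness is a logarithmic ratio of genotype to wild-type enrichment, in base 2, using inverse-variance-weighted replicate averages.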

Row | Variant | polymerase ribozyme fitness (log ratio)
1 | GGAUCUUCUCGAUCUAACAAAAAAGACAAAUCUGCCACAAAGCUUGAGAGCAUCUUCGGAUGCAGAGGCGGCAGCCUUCGGUGGCGCGAUAGCGCCAACGUUCUCAACUAUGACACGCAUAACGCGUGCUCCGUUGCUUGGAGUUUAUCAUG [A120U A137C A138U] | -4.19
2 | GGAUCUUCUCGAUCUAACAAAAAAGACAAAUCUGCCACAAAGCUUGAGAGCAUCUUCGGAUGCAGAGGCGGCAGCCUUCGGUGGCGCGAUAGCGCCAACGUUCUCAACUAUGACACGCAGAACGCGUGCUCCGUUGAAUGAAGUUUAUCAUG [A120G G141A] | 1.23
3 | GGAUCUUCUCGAUCUAACAAAAAAGACAAAUCUGCCACAAAGCUUGAGAGCAUCUUCGGAUGCAGAGGCGGCAGCCUUCGGUGGCGCGAUAGCGCCAACGUUCUCAACUAUGACACGCAAGCCGCGUGCUCCGUUGCAUGGAGUUUAUCAUG [A121G A122C A137C] | -4.06
4 | GGAUCUUCUCGAUCUAACAAAAAAGACAAAUCUGCCACAAAGCUUGAGAGCAUCUUCGGAUGCAGAGGCGGCAGCCUUCGGUGGCGCGAUAGCGCCAACGUUCUCAACUAUGACACGCUAAACGCGUGCUCCCUUGGAUUGAGGUUAUCAUG [A119U G133C A137G G140U U144G] | ≤ -4.2
5 | GGAUCUUCUCGAUCUAACAAAAAAGACAAAUCUGCCACAAAGCUUGAGAGCAUCUUCGGAUGCAGAGGCGGCAGCCUUCGGUGGCGCGAUAGCGCCAACGUUCUCAACUAUGACACGUAAAACGCGUGCUCCGUUGAAUGGGGUUUACCAUG [C118U A142G U148C] | -2.86
6 | GGAUCUUCUCGAUCUAACAAAAAAGACAAAUCUGCCACAAAGCUUGAGAGCAUCUUCGGAUGCAGAGGCGGCAGCCUUCGGUGGCGCGAUAGCGCCAACGUUCUCAACUAUGACACGCAAGACGCGUGCUCCGUAGAAUGGAGUUUAUCAUG [A121G U135A] | -0.777
7 | GGAUCUUCUCGAUCUAACAAAAAAGACAAAUCUGCCACAAAGCUUGAGAGCAUCUUCGGAUGCAGAGGCGGCAGCCUUCGGUGGCGCGAUAGCGCCAACGUUCUCAACUAUGACACGCAAAGCGCGUGCUCCGUUGAGUGGAGUUUAUUAUG [A122G A138G C149U] | -4
8 | GGAUCUUCUCGAUCUAACAAAAAAGACAAAUCUGCCACAAAGCUUGAGAGCAUCUUCGGAUGCAGAGGCGGCAGCCUUCGGUGGCGCGAUAGCGCCAACGUUCUCAACUAUGACACGCAAUACGCGUGCUCCGUUGAAUGGACUUUAUCAUG [A121U G143C] | -1.7
9 | GGAUCUUCUCGAUCUAACAAAAAAGACAAAUCUGCCACAAAGCUUGAGAGCAUCUUCGGAUGCAGAGGCGGCAGCCUUCGGUGGCGCGAUAGCGCCAACGUUCUCAACUAUGACACGAUAAACGCGUGCUCCGUUGAAUGGAGUUUAUCAUG [C118A A119U] | -0.617
10 | GGAUCUUCUCGAUCUAACAAAAAAGACAAAUCUGCCACAAAGCUUGAGAGCAUCUUCGGAUGCAGAGGCGGCAGCCUUCGGUGGCGCGAUAGCGCCAACGUUCUCAACUAUGACACGCAGAACGCGUUCUCCGUUGAAUGGAGUUUAUCAUG [A120G G128U] | -2.36
11 | GGAUCUUCUCGAUCUAACAAAAAAGACAAAUCUGCCACAAAGCUUGAGAGCAUCUUCGGAUGCAGAGGCGGCAGCCUUCGGUGGCGCGAUAGCGCCAACGUUCUCAACUAUGACACGCUAAACGCAUGCUCCGUUGAAUGGAGUUUAUCAUG [A119U G126A] | 0.174
12 | GGAUCUUCUCGAUCUAACAAAAAAGACAAAUCUGCCACAAAGCUUGAGAGCAUCUUCGGAUGCAGAGGCGGCAGCCUUCGGUGGCGCGAUAGCGCCAACGUUCUCAACUAUGACACGCACAACGCGUGCUCCGUUGAAAGGAGUUUAACAUG [A120C U139A U148A] | ≤ -4.2
13 | GGAUCUUCUCGAUCUAACAAAAAAGACAAAUCUGCCACAAAGCUUGAGAGCAUCUUCGGAUGCAGAGGCGGCAGCCUUCGGUGGCGCGAUAGCGCCAACGUUCUCAACUAUGACACGUAAAACGCGUGCUCCGUUGAAUGGAGUAUAUCAUG [C118U U145A] | -0.179
14 | GGAUCUUCUCGAUCUAACAAAAAAGACAAAUCUGCCACAAAGCUUGAGAGCAUCUUCGGAUGCAGAGGCGGCAGCCUUCGGUGGCGCGAUAGCGCCAACGUUCUCAACUAUGACACGCAACACGCGUGCUCCGUUGAAUGGAGUUUAUCAGG [A121C U151G] | ≤ -4.2
15 | GGAUCUUCUCGAUCUAACAAAAAAGACAAAUCUGCCACAAAGCUUGAGAGCAUCUUCGGAUGCAGAGGCGGCAGCCUUCGGUGGCGCGAUAGCGCCAACGUUCUCAACUAUGACACGCAAAAUGCGUGCUCCGUUGAAUGGUGUUUAUCAUG [C123U A142U] | -1.13
16 | GGAUCUUCUCGAUCUAACAAAAAAGACAAAUCUGCCACAAAGCUUGAGAGCAUCUUCGGAUGCAGAGGCGGCAGCCUUCGGUGGCGCGAUAGCGCCAACGUUCUCAACUAUGACACGCACAACGCGUGCUCCGUUGAAUGCAGUUUAUCAUG [A120C G141C] | -0.144
17 | GGAUCUUCUCGAUCUAACAAAAAAGACAAAUCUGCCACAAAGCUUGAGAGCAUCUUCGGAUGCAGAGGCGGCAGCCUUCGGUGGCGCGAUAGCGCCAACGUUCUCAACUAUGACACGCAACACGCGUGCUCCGUUGUAUGGAGUUUGUCAUG [A121C A137U A147G] | ≤ -4.2
18 | GGAUCUUCUCGAUCUAACAAAAAAGACAAAUCUGCCACAAAGCUUGAGAGCAUCUUCGGAUGCAGAGGCGGCAGCCUUCGGUGGCGCGAUAGCGCCAACGUUCUCAACUAUGACACGCAGAACGCGUGCUCCGUGGAAUGGAGUUGAUCAUG [A120G U135G U146G] | ≤ -4.2
19 | GGAUCUUCUCGAUCUAACAAAAAAGACAAAUCUGCCACAAAGCUUGAGAGCAUCUUCGGAUGCAGAGGCGGCAGCCUUCGGUGGCGCGAUAGCGCCAACGUUCUCAACUAUGACACGGUAAACGCGUGCUCCGUUGAAUGUAGUUUAUCAUG [C118G A119U G141U] | -0.349

Row | Variant | polymerase ribozyme fitness (log ratio)
20 | GGAUCUUCUCGAUCUAACAAAAAAGACAAAUCUGCCACAAAGCUUGAGAGCAUCUUCGGAUGCAGAGGCGGCAGCCUUCGGUGGCGCGAUAGCGCCAACGUUCUCAACUAUGACACGCAAAGCGCGUGCUCCGUUGAACGGAGUUUAUCAUG [A122G U139C] | -4.09
21 | GGAUCUUCUCGAUCUAACAAAAAAGACAAAUCUGCCACAAAGCUUGAGAGCAUCUUCGGAUGCAGAGGCGGCAGCCUUCGGUGGCGCGAUAGCGCCAACGUUCUCAACUAUGACACGAAAAACGCGUGCUCCGUUGAAUGGAGUUUAUCAUG [C118A] | -0.751
22 | GGAUCUUCUCGAUCUAACAAAAAAGACAAAUCUGCCACAAAGCUUGAGAGCAUCUUCGGAUGCAGAGGCGGCAGCCUUCGGUGGCGCGAUAGCGCCAACGUUCUCAACUAUGACACGGAAAACGCGUGCUCCGUUGAAUGGAGUUUAUCAUG [C118G] | -1.01
23 | GGAUCUUCUCGAUCUAACAAAAAAGACAAAUCUGCCACAAAGCUUGAGAGCAUCUUCGGAUGCAGAGGCGGCAGCCUUCGGUGGCGCGAUAGCGCCAACGUUCUCAACUAUGACACGUAGAACGCGUGCUCCGUUGAAUGGACUUUAUCAUG [C118U A120G G143C] | -2.13
24 | GGAUCUUCUCGAUCUAACAAAAAAGACAAAUCUGCCACAAAGCUUGAGAGCAUCUUCGGAUGCAGAGGCGGCAGCCUUCGGUGGCGCGAUAGCGCCAACGUUCUCAACUAUGACACUCAAAACGCGUGCUCCGUUGAAUGGAGUUUAUCAUG [G117U] | -0.0156
25 | GGAUCUUCUCGAUCUAACAAAAAAGACAAAUCUGCCACAAAGCUUGAGAGCAUCUUCGGAUGCAGAGGCGGCAGCCUUCGGUGGCGCGAUAGCGCCAACGUUCUCAACUAUGACACGCAAGACGCGUGCUCCGUUGAAUGGAGCUUAUCAUG [A121G U144C] | -0.191
26 | GGAUCUUCUCGAUCUAACAAAAAAGACAAAUCUGCCACAAAGCUUGAGAGCAUCUUCGGAUGCAGAGGCGGCAGCCUUCGGUGGCGCGAUAGCGCCAACGUUCUCAACUAUGACACGCUAAACGCGUGCUCCGUUGAAUGGAGUUUAUCAUG [A119U] | -0.546
27 | GGAUCUUCUCGAUCUAACAAAAAAGACAAAUCUGCCACAAAGCUUGAGAGCAUCUUCGGAUGCAGAGGCGGCAGCCUUCGGUGGCGCGAUAGCGCCAACGUUCUCAACUAUGACACGCCAAACGCGUGCUCCGUUGAAUGGAGUUUAUCAUG [A119C] | -0.385
28 | GGAUCUUCUCGAUCUAACAAAAAAGACAAAUCUGCCACAAAGCUUGAGAGCAUCUUCGGAUGCAGAGGCGGCAGCCUUCGGUGGCGCGAUAGCGCCAACGUUCUCAACUAUGACACGCGAAACGCGUGCUCCGUUGAAUGGAGUUUAUCAUG [A119G] | -0.045
29 | GGAUCUUCUCGAUCUAACAAAAAAGACAAAUCUGCCACAAAGCUUGAGAGCAUCUUCGGAUGCAGAGGCGGCAGCCUUCGGUGGCGCGAUAGCGCCAACGUUCUCAACUAUGACACGGAAAACGCGUGCUCCGUUGAAUGGAGAUUAUCAUG [C118G U144A] | -0.0459
30 | GGAUCUUCUCGAUCUAACAAAAAAGACAAAUCUGCCACAAAGCUUGAGAGCAUCUUCGGAUGCAGAGGCGGCAGCCUUCGGUGGCGCGAUAGCGCCAACGUUCUCAACUAUGACACGCUAAACGCGUGCUCCGUUGAACGGAGUUUAUCAUG [A119U U139C] | -3.94
31 | GGAUCUUCUCGAUCUAACAAAAAAGACAAAUCUGCCACAAAGCUUGAGAGCAUCUUCGGAUGCAGAGGCGGCAGCCUUCGGUGGCGCGAUAGCGCCAACGUUCUCAACUAUGACACGCAAAUCGCGUGCUCCGUUGAAUGGAGUUCAUCAUG [A122U U146C] | -0.714
32 | GGAUCUUCUCGAUCUAACAAAAAAGACAAAUCUGCCACAAAGCUUGAGAGCAUCUUCGGAUGCAGAGGCGGCAGCCUUCGGUGGCGCGAUAGCGCCAACGUUCUCAACUAUGACACGCAACAAGCGCGCUCCGUUGAAUGGAGUUUAUCAUG [A121C C123A U127C] | -1.91
33 | GGAUCUUCUCGAUCUAACAAAAAAGACAAAUCUGCCACAAAGCUUGAGAGCAUCUUCGGAUGCAGAGGCGGCAGCCUUCGGUGGCGCGAUAGCGCCAACGUUCUCAACUAUGACACGCAGAACGCGUGCUCCGUUGCAUGGAGUUUAUCAUG [A120G A137C] | -4.08
34 | GGAUCUUCUCGAUCUAACAAAAAAGACAAAUCUGCCACAAAGCUUGAGAGCAUCUUCGGAUGCAGAGGCGGCAGCCUUCGGUGGCGCGAUAGCGCCAACGUUCUCAACUAUGACACGGAAAACGCGUGCUCCGUUGAAUGGGGUUUAUCAUG [C118G A142G] | -1.54
35 | GGAUCUUCUCGAUCUAACAAAAAAGACAAAUCUGCCACAAAGCUUGAGAGCAUCUUCGGAUGCAGAGGCGGCAGCCUUCGGUGGCGCGAUAGCGCCAACGUUCUCAACUAUGACACGCAUUACGCGUGCUCCGUUGAAUGGAGGUUAUGAUG [A120U A121U U144G C149G] | -3.46
36 | GGAUCUUCUCGAUCUAACAAAAAAGACAAAUCUGCCACAAAGCUUGAGAGCAUCUUCGGAUGCAGAGGCGGCAGCCUUCGGUGGCGCGAUAGCGCCAACGUUCUCAACUAUGACACGCAAUACGUGUGCUCCGUUGAAUGGAGUUUAUCAUG [A121U C125U] | -0.154
37 | GGAUCUUCUCGAUCUAACAAAAAAGACAAAUCUGCCACAAAGCUUGAGAGCAUCUUCGGAUGCAGAGGCGGCAGCCUUCGGUGGCGCGAUAGCGCCAACGUUCUCAACUAUGACACGCUAAACGCAUGCUCCGUCGAAUGCAGUUUAUCAUG [A119U G126A U135C G141C] | -3.75
38 | GGAUCUUCUCGAUCUAACAAAAAAGACAAAUCUGCCACAAAGCUUGAGAGCAUCUUCGGAUGCAGAGGCGGCAGCCUUCGGUGGCGCGAUAGCGCCAACGUUCUCAACUAUGACACGCAAACCGCGUGCUCCGUUGAAUUGAGUUUAUGAUG [A122C G140U C149G] | ≤ -4.2
